The other results are listed elsewhere or left out. At the low end of the ranking the order means little. Measured with an extract: partners may take part in the binding.
Each sequence was assayed against T1, HNF4alpha8 (COS-7 nuclear extract) (UniProt P41235-5) (assay: protein-binding microarray). Conditions: COS-7 nuclear extract on double-stranded Agilent 4x180k PBM; binding buffer, salt, pH and temperature not given; high values mean tight binding; double strand, one strand shown; sequences stand for … in …GCCTAGGGAGATTAGAGTATCGGTCGA.
T1 sequence: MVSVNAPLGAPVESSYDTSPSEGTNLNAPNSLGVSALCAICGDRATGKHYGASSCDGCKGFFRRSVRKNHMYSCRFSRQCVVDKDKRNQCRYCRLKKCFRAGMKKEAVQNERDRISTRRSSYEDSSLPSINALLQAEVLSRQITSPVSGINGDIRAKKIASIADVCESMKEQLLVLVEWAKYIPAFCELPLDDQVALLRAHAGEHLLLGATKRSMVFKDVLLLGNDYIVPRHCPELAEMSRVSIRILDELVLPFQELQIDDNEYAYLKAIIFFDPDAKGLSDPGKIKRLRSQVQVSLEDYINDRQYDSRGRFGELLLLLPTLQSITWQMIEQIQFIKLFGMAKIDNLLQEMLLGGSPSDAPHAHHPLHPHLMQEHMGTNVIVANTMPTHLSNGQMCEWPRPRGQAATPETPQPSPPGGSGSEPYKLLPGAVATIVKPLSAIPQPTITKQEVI

Sequence | binding signal (log2 normalized intensity)
GTATCTTGTCTGACTGTGATACCAGGGGTC | 3.75
AGTGTCACAAACTATCAGTGAAGAGCAAAC | -1.46
ACCAGCCCACTCTTAGCAGAGATTCCTGCT | -1.36
GGCCTGGTTCGGGATTATGGCCGGCCCCTG | 0.388
TCACCTGGCTCTGAAAAACAAAATGCATTT | -0.57
GGTGAAGCTTGGGCAGCACAGCCTCCCTGT | -1.22
CTCACCAGTGGGCCCAGAGCACAACCTTTG | 1.42
CCATGACGCAAGCGAGTAAGGCCCGTGAGA | -1.4
TCCTTTGGTGCAAATACCATCCCCAGAGCC | 1.92
ACACCTGCGTGTACTAAGGTCTTAAGTGTC | 0.834
CAAACTCATTTTGATCTTTGTGTACAAAGC | 1.76
CAGGGACACATGCCCCTTCCCTCCCTGCAA | 3.31
TTCTTTGGTACTTTGAGCCAGTAAGTCTAG | 1.94
CCACAAACAAACAGGGTGGCTTTGATCTGG | 0.266
AAACCTACTTAGATCAAGATTTTCAACTTG | -1.33
GTGAAGTGGTAGGACAGGGCCCTTCACTAT | -1.41
TTGTGTCACCAATGGTAACTGAAAGTCATG | -0.0656
ATCTCCAAACGAGACTTTGGACTTTGGACT | 11.9
TGAGCCGCCAGGCGGGTTCTGCCATCTCGC | -0.757
AATGTTATTTATCCAGCTGGGTATACTGAC | 1.08
AAAGGCAGCCCCTTATCAGGAGAGGAGGCC | -1.27
AAGTCTGAAATCTACAGGACAGCCAGGCAG | -1.38
CTGGACAGGTCCAAGGTTCTCCAGGGACCC | 1.35
TGCCTCAGTAGTAGTGAAAAATGAATAACT | -1.1
CTGACCAGCTCCAAAGTCCGCCACTAGCAA | 1.52

Sequence | binding signal (log2 normalized intensity)
GTTTATCTGCCTGTGGATAGCTGGCATGCA | 0.0443
CCCAGAGGCTGGTCAGAATTCCATCCCAGG | -1.25
ATTAAGCAAGATATGTGCCTGCCTTATACA | 0.303
ATTGCCAAGGGGGTGGTGAAATGGGGGAAG | -1.31
ATTTTAGGAGCCTCCAATCAGGACAGACTG | -1.36
CCTTCACCAGAGCCGTCTGGTAAATTTCTA | -1.33
GTGTTCACACCACACTCTCCTCCTGGCCTC | -1.03
ACATGACCACCTGGTTTAAGTCACTATCAA | -1.27
TTGCTGACCCCCTACATAGAGAGCAGTCTT | 2.75
TGTGTTTCTCAATGTCTTTCCTGCAGAGGG | 0.718
GATGGTAACCACACCAAGGGGCCCCCACTT | -1.15
CCAAGACCTTTGAAGCTTGCAACAAAGGGG | -0.475
ATATTCCAAATTCCAGCTGAAGTTCCCAGC | -1.27
AATCTGAATTAACTCTTTACACAGTTCTGA | -0.988
TAGACTCCAGGCTTGTCCTTTTGACCACAG | 2.85
GCTCTGCATCCTTCCCTAAGCAGCTGCAGT | -1.18
ACCTTCTACCGTACCTAGGACAAAGCAAAC | -1.25
AAAGTTCACCACTTTTGCAATGTTTCCAAA | 0.374
GCTGGAACAGGCTGGGACACGCCTGCCCTC | 1.32
GGAATGAGCAGGAACCTTGTGGTGGTGAAA | 0.216
ACCAGACTACCTCTTTAGGCTGGACTCTGA | 4.7
AGTGGACTTTGACCTTGTTTTCAATGACTA | 7.8
GGGCCAGCAGTGCCCAAAGCCCAAGGGATG | -1.33
GGCGTGACCCCCACTGCCTGCCTGCCAACT | 2.94
TGTCCACCTTATCTAATGCCCCAAATGACG | 2.66

Sequence | binding signal (log2 normalized intensity)
ATCAAGGTGGTTTCACTTCAAGATGGCATC | 0.407
TGTGTCAAAGGTCACTTAGTCCCTAAGTCT | 5.26
TTCCTATGTAAACACAAGATATTATTAGAC | -0.883
TGCTAGAGTACTTGGACTTTAACCTTTAGA | 9.71
TAAATGACCTCTGCCCTTCCACCCACTTTA | 4.61
GTCATAAGCTGTGGGATCCAACCAGAGGGA | -1.34
CTCTTGCTTCCTGGGATGCATTTGAAACCA | -0.67
AAGTTCCCCGGGCAGCTGTGTTTGCAGCCG | -1.1
GACGCTCAGTAAATCTGCACTTTACGTAAG | -1.3
TAGGAGGTCAGCACAAGATACAGCTTATCA | -1.51
GTCCTAAAGAGGATATCCTGGCAGTGTGGA | 0.672
CTGTTTATGGGTTAACAGAATGAACAGCTC | 0.793
ATGCTGGTCTCCTTGCCCCACCCCCCACCC | 7.48
ATCCTGCCTCCATTAATTAACCTTTGAGCT | 6.76
GCTGAGGTTAGAATCCTTATCTGGTGTGCT | -0.717
GAGCAAATACTTATGATATGAAGCATTGCT | -1.43
GGCTGGCCCTGAGCCAAGGGAGCACAACCC | -1.31
ATCTTTTCTTTTAAAAAGCTGCAATGGCTT | -1
GTGTCAGCATCTAAACCTCTGCACACAGGA | -1.2
AACATTACTAACTGGACTTTATCTACCATT | 2.73
CGGATCCTCCCAGCCTGGAGGAGGGCGAGG | -1.28
GATAGCCTTTGCCTCCACCTTCTCTCCCAC | 0.15
AGAATTCCAGAGATGCCAGGAGAGCCGAAG | -1.33
